# From the supplement of paper PMC3334620
# Over roughly 33,000 sequences, “E-score (-0.5 to 0.5)” has its median near -0.054; the highest 2% begin near 0.35. This is one part of the list.
# Target: T1, Stb5 (UniProt P38699)
# T1 sequence: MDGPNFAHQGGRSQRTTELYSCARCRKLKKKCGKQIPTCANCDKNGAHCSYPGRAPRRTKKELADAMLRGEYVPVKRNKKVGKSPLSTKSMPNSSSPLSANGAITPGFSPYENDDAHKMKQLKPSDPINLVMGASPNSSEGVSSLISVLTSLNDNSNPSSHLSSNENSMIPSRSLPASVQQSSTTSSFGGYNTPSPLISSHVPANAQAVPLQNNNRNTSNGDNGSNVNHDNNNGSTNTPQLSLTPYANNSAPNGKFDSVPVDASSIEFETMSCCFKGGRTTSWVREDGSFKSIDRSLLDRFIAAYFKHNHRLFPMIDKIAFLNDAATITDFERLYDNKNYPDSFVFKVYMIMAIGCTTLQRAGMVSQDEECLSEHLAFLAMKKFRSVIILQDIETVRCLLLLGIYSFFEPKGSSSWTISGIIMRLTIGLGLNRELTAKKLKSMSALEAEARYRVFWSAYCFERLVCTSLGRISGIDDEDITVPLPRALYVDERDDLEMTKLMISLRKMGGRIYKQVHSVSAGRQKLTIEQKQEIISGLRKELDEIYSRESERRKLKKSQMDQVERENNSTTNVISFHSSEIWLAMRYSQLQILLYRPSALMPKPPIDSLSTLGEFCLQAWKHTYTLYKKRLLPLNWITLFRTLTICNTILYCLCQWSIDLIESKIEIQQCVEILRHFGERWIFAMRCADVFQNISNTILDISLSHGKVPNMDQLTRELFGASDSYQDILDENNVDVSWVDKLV
# Experiment: PBM E-score (8-mer binding enrichment) (E-score (-0.5 to 0.5)); higher = stronger / more preferred TF binding; most listed sequences are background and not binding sites
# Details: protein concentration: 200 nM; construct: GST-full length
# Method in brief: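 For each ungapped eight-base word taken together with its reverse complement, the Universal PBM Analysis Suite assigned an E-score. Binding data came from GST-tagged yeast transcription factors, applied at about 100-200 nM, on universal all-10-mer Agilent arrays made double-stranded by primer extension. Fluorescent anti-GST marked bound protein, and scans were normalised with masliner.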
row,Sequence,PBM E-score
1,GTACCTTA,-0.108
2,CAATGCAA,-0.237
3,GCCTAACA,0.135
4,CTGACAGA,-0.0917
5,CGGAGACC,0.109
6,CTATTAAG,-0.0932
7,TCACGGAA,0.143
8,AGCCGCCA,0.175
9,CGGGCTCA,0.358
10,AAGCATCC,0.0903
11,ATTTAGCC,0.165
12,CCATTTAC,0.105
13,AAAGAGGT,-0.0965
14,ACCACTAT,-0.311
15,ACCCAGCG,-0.0786
16,AAGGGATT,-0.0692
17,ACTGAGGA,-0.0568
18,GACTCAAC,0.053
19,ATTTTGAA,-0.00475
20,AGCAGATA,-0.0426
21,CTTGCATA,-0.0771
22,GATACAAC,0.0993
23,ATTTACGG,0.308
24,CCACTAAC,-0.171
25,TGCATGAA,-0.171

row,Sequence,PBM E-score
1,CACCGTCG,0.373
2,CATAGTGG,-0.00613
3,AGAAGCAG,-0.173
4,GACGAGGA,-0.294
5,ACAAGGTG,-0.00144
6,CTCTGGTA,-0.154
7,AGCCGTGG,-0.0217
8,AGATCGTC,-0.196
9,ACCAACTG,-0.19
10,TATCGCGA,0.0404
11,AGGCCGAA,0.148
12,GACATTAC,0.0556
13,ATGATGAA,-0.196
14,CACATCCC,-0.137
15,GGCGATAA,0.284
16,GGGCTTGA,-0.178
17,CCAATTGC,-0.138
18,ACACAGGG,-0.00359
19,CATGGCAA,-0.214
20,AACCTGAA,-0.145
21,TGCTGTAA,-0.143
22,TTCAACAA,0.0239
23,CCAACTAG,-0.285
24,GCCGAACA,0.105
25,AAATTATT,0.00447

row,Sequence,PBM E-score
1,CCCGAATA,0.179
2,AAGTAGAC,-0.125
3,GATAGAGC,0.191
4,TGCCAAAA,-0.0261
5,AAAGTTCA,0.0451
6,ACTTTACG,-0.146
7,GTATTAAC,0.163
8,CGTGGGAA,-0.29
9,TAGCGGAA,0.106
10,ACAGCTAG,-0.15
11,ATCCACTG,-0.193
12,ACCTTGCT,-0.181
13,ATATGGAT,-0.268
14,CGGCACGC,0.26
15,GGGGATCA,-0.0761
16,ACTTCGGG,0.135
17,CTGTCTTC,-0.21
18,CAAAGCAC,-0.108
19,AAAGTCCC,0.274
20,AAGAAGAA,-0.0176
21,GCGATATA,0.0755
22,ATGTCGCA,-0.0499
23,CGGAACAC,0.0811
24,ATACGCGC,-0.0315
25,AGTCGTTG,-0.269

row,Sequence,PBM E-score
1,CAGAGGGA,-0.261
2,CCTACCGC,0.169
3,AGGTGTTC,-0.101
4,CAGGGGGG,-0.104
5,AGCTATTG,-0.169
6,AGTTGTCA,-0.0673
7,TAGACACA,-0.0588
8,TCTATCCA,-0.153
9,ATAAGGGG,-0.0458
10,ACTTATCA,-0.11
11,TAATGCCA,-0.111
12,GCCTCAAC,-0.0908
13,ATACTTAC,-0.129
14,GAATCAAA,-0.0273
15,CGATGCAG,-0.0534
16,ACTTCCTG,-0.219
17,GAACGAAC,0.0361
18,AAAGTCCA,-0.136
19,AATCCCTA,-0.0614
20,ACTATCCT,-0.0158
21,AGGGCTAG,-0.198
22,AGCCTGGA,-0.16
23,AGGGTCAG,-0.213
24,AGACAGAC,-0.0465
25,CTCAACTA,-0.0688

row,Sequence,PBM E-score
1,ATATAGAA,0.131
2,GTAGACTA,-0.00029
3,ACTTACCA,-0.138
4,CCTTGGGA,-0.0865
5,TAATAGAA,-0.074
6,AGTCGAGG,-0.0953
7,ACCCCGAC,0.444
8,CGGGCTAA,0.3
9,CCGGCAAC,0.298
10,CAAGTAGA,-0.0427
11,AGGGACGA,0.00173
12,TGCATTAA,-0.146
13,TCTTACCA,-0.0054
14,CTAGGAAA,-0.0895
15,CCTTATGC,-0.172
16,GAGCTATC,0.0611
17,ATGACTGG,-0.128
18,CCGTCCCG,0.239
19,GCGGCGGA,0.333
20,GAGATGGC,0.0637
21,GTCCAGAA,-0.0587
22,CACAGTTC,-0.0473
23,CACTTTCG,-0.104
24,CATAGCGA,-0.153
25,CGTCACCC,0.0988

row,Sequence,PBM E-score
1,AGGTGGGG,-0.136
2,GTCCCTGA,-0.284
3,AAAATGGC,-0.0128
4,TATGCAAA,-0.233
5,GGCCGACC,0.271
6,AATGCATC,-0.252
7,AACGGGCA,0.276
8,AGAATATA,0.0197
9,AAATGCTA,-0.223
10,ACGATTCA,-0.119
11,AGGGTAAT,-0.0459
12,CGCTCCCC,-0.0584
13,TCCTCAAA,-0.0986
14,CGAGGGCG,0.178
15,ACACAGAC,0.0166
16,AGGTTAAA,-0.0365
17,ACCATATC,-0.0669
18,ATATATGG,0.0193
19,AGTCTAAG,0.0845
20,CAGCTTGA,-0.173
21,ATTCTCAA,-0.165
22,GCAGTTCC,-0.136
23,AGTACATA,-0.113
24,ACTCAGTG,-0.207
25,CCTCGTCA,-0.192

row,Sequence,PBM E-score
1,CTAGTTGA,-0.117
2,CCCTGTAA,-0.0001
3,CTCACTAC,-0.0904
4,AAAAAGCT,-0.205
5,AATTAGAG,-0.179
6,CAGCGACA,-0.0488
7,CGCGGAAA,0.205
8,GAAACACA,0.102
9,GACCCATC,0.084
10,CATTTCGG,0.0963
11,CTGCTGCA,-0.29
12,CGCAGAAC,-0.0196
13,AGTTTGAC,-0.0987
14,ATCAAGAC,0.124
15,CCACTTCC,-0.229
16,ACGGATAA,0.215
17,AGTCCTGG,-0.204
18,CGCATCTC,-0.00684
19,AGCACTCG,-0.0832
20,ACCCGTCG,0.222
21,AGGAAAGA,-0.323
22,AACTTTGA,-0.158
23,TCCTCGCA,-0.136
24,CAAAGATG,-0.101
25,CCATCCTC,-0.197

row,Sequence,PBM E-score
1,GTCTCACA,-0.13
2,AGAGGGGA,-0.0635
3,AACCGGCG,0.313
4,GATTGGAA,-0.0182
5,GATACTAA,0.146
6,AAGTCATA,-0.254
7,ACGCAAGA,-0.134
8,ATGGAAAG,0.0404
9,GCAACCGC,0.0926
10,ACAGGTTG,-0.171
11,CCGTTTCA,0.147
12,CAGTGTCA,-0.176
13,CCACGCTA,-0.185
14,CTCTACGA,-0.361
15,AGCCTCCG,0.1
16,TACATAGA,-0.09
17,CCGGTACA,0.303
18,CAACAGCC,-0.12
19,CACGAAGA,-0.115
20,ATGTCATC,-0.259
21,ACAGGTGC,-0.0775
22,ACGGGCGA,0.139
23,ACGTAGTA,0.0861
24,AGTGCCAG,-0.0267
25,ACTGATGG,-0.0723

row,Sequence,PBM E-score
1,GACGAATA,-0.00361
2,CGTACAGA,-0.0892
3,AAGGAATG,-0.116
4,ATCTTCAA,-0.273
5,AATATGAG,-0.135
6,ACATTGAA,0.0392
7,ATCTAGCC,-0.0546
8,CAGACTCG,-0.388
9,ACACGCTC,0.058
10,GGGGCGCA,-0.0317
11,CTTGCCGA,-0.074
12,ATAACCTA,-0.0654
13,CCGCACCG,0.252
14,ATTAGCTC,-0.154
15,ACCTCAGC,-0.0343
16,AGGGCATG,-0.176
17,ACCGTGAA,0.0223
18,AGCCTACA,-0.157
19,CACTCGCC,-0.134
